Several values for one entry are separate records, joined by “and”; a condition that tells them apart may be missing. Equal values may be shown once. This is one part of the list. These are further read-outs of the screen, such as a control signal, another cell line or another target. No call is given for them. Compounds called inactive in the main read-out are mostly missing here. The note in brackets gives the kind of curve behind each potency; many fits are weak.
Assay: qHTS Assay for Lipid Storage Modulators (AID 1519)
Conditions: Drosophila S3 cells, BODIPY lipid droplet/cell ratio, laser cytometry, cells loaded with oleic acid
Summary of the method: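 Cells seeded at 5,000 per well were treated with compounds over a concentration series and loaded with oleic acid (400 uM, as added). Lipid droplet fluorescence (488 nm excitation, 500-530 nm channel) was read by laser-scanning cytometry and normalized to 20 uM Triacsin C.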

[1] = measured here: cell count channel max response
[2] = measured here: lipid (BODIPY) channel AC50
[3] = measured here: lipid channel max response
[4] = measured here: cell number channel AC50
Tags give direction and shape of the fitted curve.

Compound	max response [1]	AC50 [2]	max response [3]	AC50 [4]
CCOC(=O)NNc1nncc2ccccc12	23.3%	20 µM [rising, partial curve]	42.9%	–
Cn1c(=O)c(-c2cc(F)cc(F)c2)nc2cnc(N3CCNCC3)nc21	22.4%	17.8 µM [rising, single point]	30.5%	–
O=c1c(CCc2ccccc2)nc2cnc(Oc3ccccc3)nc2n1C1CC1	4.38%	2.82 µM [rising, single point]	8.48%	–
CNc1nc(-c2ccccc2C)nc2ccccc12	-7.57%	–	-31.7%	1 µM [rising, full curve]
COc1cccc(-c2oc3ccccc3c(=O)c2O)c1	55%	–	70.5%	7.08 µM [rising, full curve]
N#CCCn1c(=O)c(-c2cccs2)nc2cnc(Oc3cccc(Cl)c3)nc21	-7.04%	–	-11.1%	0.631 µM [rising, full curve, poor fit]
CN1CCN(c2ncnc3ccc(-c4ccccc4C(F)(F)F)cc23)CC1	-22.2%	39.8 µM [falling, single point]	-42.9%	–
COc1ccc2cc(C(C)C(=O)O)ccc2c1 (stereo not given)	37.8%	39.8 µM [rising, single point]	67%	–
Cc1ccccc1-c1ccc2ncnc(NCCN3CCOCC3)c2c1	3.5%	5.62 µM [rising, partial curve, poor fit]	-0.573%	–
COc1ccc(/C=C/C(=O)O)cc1OC	15.7%	28.2 µM [rising, single point]	37.3%	–
O=C1CC(c2ccccc2O)Oc2ccc(O)cc21 (stereo not given)	29.4%	31.6 µM [rising, partial curve]	44.6%	–
C=CC(C1=CC(=O)C(OC)=CC1=O)c1ccc(OC)cc1 (stereo not given)	1.9%	1.78 µM [rising, full curve, poor fit]	24.1%	–
Cn1c(=O)[nH]c(=O)c2[nH]cnc21	17.7%	39.8 µM [rising, single point]	38.7%	–
NCCCCN=C(N)N	80.3% and 45.1%	39.8 µM [rising, single point]	107% and 46.3%	–
CCOC(=O)C1=C[C@@]2(CC)CCCN3CCc4c(n1c1ccccc41)C32 (stereo not given in full)	12.2%	39.8 µM [rising, single point]	32%	–
